Test results as given in the supplement of paper PMC12217912.
Some of the results follow. Sequences were assembled here from the parent chain. Inactive controls read about 0.05.

B1: TEV protease; numbered along this chain (parent)
chain: MGESLFKGPRDYNPISSSICHLTNESDGHTTSLYGIGFGPFIITNKHLFRRNNGTLVVQSLHGVFKVKDTTTLQQHLVDGRDMIIIRMPKDFPPFPQKLKFREPQREERICLVTTNFQTKSMSSMVSDTSCTFPSGDGIFWKHWIQTKDGQCGSPLVSTRDGFIVGIHSASNFTNTNNYFTSVPKNFMELLTNQEAQQWVSGWRLNADSVLWGGHKVFMVKPEEPFQPVKEATQL

Variants of: B1
Assay: raw area under fraction-flipped curve 0-4 h after induction (AUC4h, not background-subtracted), DNA-recorder readout of cleavage of the substrate (dimensionless); higher = more cleavage of the substrate by the protease variant
Conditions: temperature: 34 °C; time window: 0-4 h after rhamnose induction
Method: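 In vivo DNA recorder in E. coli TOP10(DE3) ΔrhaA at 34 °C. Each TEVp single-site mutant (parent TEVp 0) is paired with a single-site variant of the 7-mer TEVs (canonical ENLYFQ|S). The substrate sits between flexible linkers in a Bxb1-sfGFP-TEVs-SsrA fusion, so cleavage stabilises Bxb1 and speeds flipping of a recombination array, read by NGS. The value is the raw area under the fraction-flipped curve over 0-4 h after rhamnose induction (AUC4h), with ≥20 reads per time point. It is not background-subtracted; inactive controls average about 0.047.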
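Further: Bxb1 expression induced with 0.2% (w/v) L-rhamnose at OD600 near 0.5, cultures sampled hourly, flipped fraction per protease–substrate barcode pair counted by paired-end Illumina sequencing.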

Variant | area with substrate ENAYFQS | area with substrate ENCYFQS | area with substrate ENDYFQS | area with substrate ENEYFQS | area with substrate ENFYFQS | area with substrate ENGYFQS | area with substrate ENHYFQS | area with substrate ENIYFQS | area with substrate ENMYFQS | area with substrate ENNYFQS | area with substrate ENPYFQS | area with substrate ENQYFQS | area with substrate ENRYFQS | area with substrate ENSYFQS | area with substrate ENTYFQS | area with substrate ENVYFQS | area with substrate ENWYFQS | area with substrate ENKYFQS | area with substrate ENYYFQS
G37K | 0.0448 | 0.0444 | 0.0568 | 0.0477 | 0.0521 | 0.0532 | 0.0417 | 0.0434 | 0.0527 | 0.0473 | 0.0475 | 0.0485 | 0.0477 | 0.0506 | 0.0577 | 0.0505 | 0.0515 |  | 
G37N | 0.0631 | 0.0595 | 0.0821 |  | 0.0591 |  | 0.0577 |  |  | 0.0485 | 0.0757 |  | 0.0419 | 0.0535 |  | 0.0505 | 0.0525 | 0.0556 | 
F38A | 0.0693 | 0.0618 |  | 0.0468 | 0.0705 |  | 0.0711 |  |  |  |  | 0.05 |  | 0.0581 | 0.0505 | 0.0349 |  |  | 
F38L | 0.0572 | 0.0697 | 0.0584 | 0.0558 | 0.0507 | 0.0553 | 0.0561 | 0.0786 | 0.0661 | 0.0561 | 0.0562 | 0.0561 | 0.0608 | 0.0568 | 0.0839 | 0.0785 |  | 0.0613 | 0.0567
F38M | 0.052 | 0.0664 | 0.0639 | 0.0613 | 0.0556 | 0.0594 | 0.0629 |  | 0.0813 | 0.0639 |  | 0.0578 | 0.0772 | 0.0541 | 0.0556 | 0.0651 |  | 0.069 | 
P40E | 0.0574 | 0.0655 | 0.065 | 0.0596 |  |  |  |  |  |  |  | 0.056 | 0.0749 | 0.0604 | 0.0594 |  |  |  | 0.0348
F41V | 0.0749 | 0.0633 | 0.0488 | 0.0624 | 0.0548 | 0.0598 | 0.0573 | 0.0913 | 0.0745 | 0.0463 | 0.0536 | 0.0566 | 0.0632 | 0.0598 | 0.0575 | 0.0682 |  | 0.0583 | 0.047
I42H | 0.0393 |  | 0.0315 | 0.0444 |  | 0.0472 | 0.082 |  | 0.0428 |  |  | 0.0501 |  |  | 0.0313 |  |  | 0.0303 | 0.0341
I42N | 0.0371 | 0.0418 | 0.0604 | 0.0368 | 0.0204 | 0.0312 | 0.0444 | 0.0281 |  | 0.0313 | 0.0545 | 0.0468 |  | 0.0465 | 0.0503 | 0.0437 |  |  | 0.0497
I43C | 0.058 | 0.0667 | 0.0225 | 0.063 |  | 0.0523 |  |  | 0.0629 | 0.0708 | 0.0647 | 0.0578 | 0.0223 | 0.0648 | 0.0587 | 0.0684 | 0.0578 | 0.0611 | 
I43T | 0.0533 | 0.0595 | 0.0648 | 0.0675 | 0.0526 | 0.0603 |  | 0.071 | 0.0467 | 0.0729 |  | 0.0452 | 0.0527 | 0.0585 | 0.0588 | 0.0485 |  | 0.0613 | 0.0571
T44C | 0.0574 | 0.0684 | 0.0623 | 0.0595 | 0.0667 | 0.0675 | 0.067 | 0.0755 |  | 0.0543 |  | 0.0592 | 0.108 | 0.063 | 0.062 | 0.085 |  | 0.0643 | 0.0634
N45A | 0.0562 | 0.0372 | 0.0697 | 0.06 |  | 0.0661 | 0.0619 |  |  | 0.06 | 0.0559 | 0.0507 | 0.0506 | 0.0577 | 0.0573 | 0.0513 | 0.0253 | 0.0634 | 0.0439
N45K | 0.0539 | 0.0537 | 0.0722 | 0.0537 |  | 0.0482 |  | 0.0579 |  | 0.0695 | 0.057 | 0.0504 |  | 0.0668 | 0.0627 | 0.0583 | 0.041 | 0.0598 | 0.0584
K46H | 0.0609 | 0.0599 |  | 0.0639 |  | 0.0657 |  | 0.0567 | 0.0487 | 0.0541 | 0.0489 | 0.0607 |  | 0.0584 | 0.0474 | 0.0667 | 0.06 | 0.0632 | 
K46L | 0.0614 | 0.0625 | 0.062 | 0.0597 |  | 0.0578 | 0.049 | 0.0644 | 0.0376 | 0.0562 | 0.0565 | 0.0634 | 0.058 | 0.0703 | 0.0507 | 0.063 |  | 0.039 | 
K46Q | 0.0424 | 0.069 | 0.0542 | 0.058 | 0.0568 | 0.0915 | 0.0515 |  | 0.0638 | 0.0584 |  | 0.0488 | 0.0569 | 0.0795 |  |  |  |  | 
K46Y | 0.0459 | 0.06 |  | 0.0553 | 0.0542 | 0.0693 | 0.0456 |  | 0.0644 | 0.0594 |  | 0.0497 | 0.0643 | 0.0548 | 0.0487 | 0.0596 |  | 0.0475 | 
H47I | 0.0384 | 0.0581 | 0.0614 | 0.0675 | 0.0586 | 0.0566 |  | 0.0551 | 0.0616 | 0.069 |  | 0.0557 | 0.0602 | 0.0669 | 0.0444 | 0.0524 |  |  | 
H47S | 0.0432 | 0.0454 | 0.0625 | 0.077 | 0.0612 | 0.063 | 0.0714 | 0.0663 | 0.0558 |  | 0.0585 | 0.0672 |  | 0.0699 | 0.0459 | 0.0717 |  |  | 0.0572
H47V | 0.0637 | 0.0678 | 0.062 | 0.0639 | 0.0478 | 0.0437 | 0.0608 | 0.0471 | 0.0704 | 0.0587 |  | 0.051 | 0.0687 | 0.0612 | 0.071 |  |  |  | 0.0726
F49C | 0.0805 |  | 0.0605 | 0.0695 | 0.0618 | 0.0655 | 0.0566 | 0.0778 | 0.0298 | 0.0451 | 0.0525 | 0.0568 |  | 0.056 |  | 0.057 | 0.0522 | 0.0571 | 0.0533
N52H | 0.0566 | 0.0539 | 0.0515 |  | 0.0647 | 0.0606 |  | 0.0826 | 0.0856 | 0.0648 | 0.0445 |  | 0.054 | 0.0717 | 0.0569 | 0.057 |  | 0.0556 | 
N52R | 0.0785 | 0.0698 |  | 0.0579 |  | 0.0614 | 0.057 |  |  | 0.0537 | 0.0425 | 0.0621 | 0.0502 | 0.0517 |  | 0.0701 |  |  | 
N53I | 0.0604 | 0.127 | 0.0708 | 0.0603 | 0.0584 |  | 0.0533 | 0.0737 | 0.0839 | 0.0545 | 0.057 | 0.106 | 0.0674 | 0.068 | 0.0628 | 0.0673 |  | 0.0566 | 0.0667
